The values that follow come from US9975943B2, “Polypeptides” (AFFIBODY AB, priority 2013, dated 2018).

The target of assay [1] is human FcRn (Homo sapiens, UniProt P55899). The assay can be described thus: Biacore kinetic analysis of His6-tagged Z variants. On the set-up: made in house; host or cells: human SKOV-3 cells, lentivirally transduced, secreted; purified on immobilized human IgG. The following applies: hFcRn, pH 6.0, Langmuir 1:1 model, approximate. It counts as binding. Here is the method:
The interaction of FcRn binding His6-tagged Z variants with human FcRn was analyzed in a Biacore 2000 instrument (GE Healthcare). Human FcRn was immobilized in a flow cell on the carboxylated dextran layer of a CM5 chip surface (GE Healthcare). The immobilization was performed using amine coupling chemistry according to the manufacturer's protocol and using HBS-EP (GE Healthcare) as running buffer. One flow cell surface on the chip was activated and deactivated for use as blank during analyte injections. In the two binding experiments presented below, McIlvaines phosphate-citrate buffer pH 6.0 supplemented with 0.005% Tween-20 (0.005% PCT) was used as running buffer. In all experiments, a flow rate of 50 μl/min was used.
In another experiment, approximate kinetic constants (kon and koff) and affinities (KD) were determined for a subset of His6-tagged Z variants. Three concentrations of the Z variants were injected for 1 minute followed by dissociation in running buffer for 1 minute. The surfaces were equilibrated with running buffer during 7.5 minutes before the start of next cycle. […] Kinetic constants were calculated from the sensorgrams using the Langmuir 1:1 model of BiaEvaluation software 4.1 (GE Healthcare).

Assay [2] deals with T1, mFcRn (Mus musculus, UniProt Q61559, INS109QKRG).
T1 construct: made in house; host or cells: mouse 3T3 cells
T1 sequence (Q61559 with tags, fused parts or gaps INS109QKRG): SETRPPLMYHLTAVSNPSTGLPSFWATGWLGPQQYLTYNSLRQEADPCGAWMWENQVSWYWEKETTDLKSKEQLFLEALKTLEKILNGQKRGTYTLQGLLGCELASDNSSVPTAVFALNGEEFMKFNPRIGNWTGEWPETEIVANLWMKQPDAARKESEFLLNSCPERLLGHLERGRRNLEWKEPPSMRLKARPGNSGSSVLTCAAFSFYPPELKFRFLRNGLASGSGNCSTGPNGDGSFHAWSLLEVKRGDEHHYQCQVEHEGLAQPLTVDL
T1 sequence (P01887 21-119 partner): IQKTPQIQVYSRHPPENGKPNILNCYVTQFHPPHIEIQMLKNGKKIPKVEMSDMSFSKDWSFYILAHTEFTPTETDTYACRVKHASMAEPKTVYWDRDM
The experiment in a line: Biacore 3000 affinity, one site binding saturation model. Conditions: His6-tagged, 25° C. Here is the method:
(§1) In a separate experiment, the affinity of the interactions of Z variants to hFcRn (SEQ ID NO:1065) and mFcRn (SEQ ID NO:1070), respectively, was measured at both pH 6.0 and pH 7.4 on a Biacore 3000 instrument (GE Healthcare). hFcRn and mFcRn were produced essentially as described in Example 1 but using mouse 3T3 cells instead of human SKOV-3 cells for production of mFcRn, and immobilized on separate flow cells on a CM5 chip in acetate buffer at pH 4.65. The immobilization level was approximately 1000 RU for both receptors. A reference flow cell was created by activation and deactivation. 0.005% PCT pH 6.0 or 7.4 was used as running buffer and for dilution of the analytes. All analyses were performed at 25° C. […] The affinities were derived using GraphPad Prism 5 software, using a one site binding saturation model.

Assay [3] concerns the target T2, hFcRn (Homo sapiens, UniProt P55899).
T2 construct: made in house; host or cells: human SKOV-3 cells, lentivirally transduced, secreted; purified on immobilized human IgG
Described as above. The following applies: His6-tagged, 25° C. Here is the method:
as §1

Assay [4] deals with T3, human FcRn-eGFP transduced HeLa cells (Homo sapiens, UniProt P55899).
T3 construct: expressed in transfected cells; host or cells: HeLa cervix adenocarcinoma cells (lentiviral transduction), formaldehyde-fixed and saponin-permeabilised
The assay can be described thus: Blocking of IgG-FcRn immunofluorescence staining (Example 5). It counts as cell-based. The following applies: 100 nM Alexa647 human IgG; 1-1000 nM His6-tagged Z variant; pH 6.0. Here is the method: Human or murine FcRn-eGFP transduced HeLa cells were prepared as described in Example 4. […] The cells were incubated for 1 h at 37° C. on a shaker in the dark, washed with 2×100 μl PBS-casein pH 6.0 and re-suspended in 180 μl of PBS, pH 6.0, plus 1% BSA. Data from 10,000 cells/well (except somewhat fewer cells for mouse 100 nM mIgG-Alexa647) were obtained using a Gallios Flow Cytometer (Beckman Coulter) and the data was analyzed using Kaluza software (Beckman Coulter).

Like-named read-outs stand apart in the source and are kept apart here.

T2 sequence (P55899 24-290): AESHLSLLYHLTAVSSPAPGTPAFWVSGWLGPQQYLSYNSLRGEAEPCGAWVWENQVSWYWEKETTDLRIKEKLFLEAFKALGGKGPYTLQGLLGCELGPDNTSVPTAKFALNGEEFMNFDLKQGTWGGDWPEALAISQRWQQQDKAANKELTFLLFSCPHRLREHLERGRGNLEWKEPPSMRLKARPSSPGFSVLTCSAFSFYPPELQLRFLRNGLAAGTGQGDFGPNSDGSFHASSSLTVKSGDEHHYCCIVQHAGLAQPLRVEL
T2 sequence (P61769 21-119 partner): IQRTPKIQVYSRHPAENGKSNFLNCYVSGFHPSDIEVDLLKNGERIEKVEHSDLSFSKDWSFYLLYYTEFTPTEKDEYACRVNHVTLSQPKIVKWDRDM
human FcRn, sequence (P55899 24-290): as the sequence (P55899 24-290) above
human FcRn, sequence (P61769 21-119 partner): as the sequence (P61769 21-119 partner) above
T3 sequence (P55899 24-365): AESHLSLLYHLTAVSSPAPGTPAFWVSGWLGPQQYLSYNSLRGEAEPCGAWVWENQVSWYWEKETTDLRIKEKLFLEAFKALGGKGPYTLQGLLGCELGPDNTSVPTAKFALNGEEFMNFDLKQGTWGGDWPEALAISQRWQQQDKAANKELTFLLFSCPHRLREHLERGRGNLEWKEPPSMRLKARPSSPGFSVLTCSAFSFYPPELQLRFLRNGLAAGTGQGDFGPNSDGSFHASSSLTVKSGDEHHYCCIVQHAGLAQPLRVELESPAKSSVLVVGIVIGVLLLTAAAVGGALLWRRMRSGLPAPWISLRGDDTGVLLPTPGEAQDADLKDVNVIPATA
T3 sequence (P61769 21-119 partner): as the sequence (P61769 21-119 partner) above

“Z07918: FcRn binding Z variant, 58 amino acid residues, from phage display selection (VDAKYAKEQDAAAHEIRWLPNLTFDQRVAFIHKLADDPSQSSELLSEAKKLNDSQAPK; Engineered FcRn binding polypeptide)”: the Kd in assay [1] is 16 nM; in assay [2] (pH 6.0, read-out: KD (M) mFcRn pH 6.0), 9e-08 M; in assay [2] (pH 7.4, read-out: KD (M) mFcRn pH 7.4) it was over 5e-07 M; in assay [3] (pH 6.0, read-out: KD (M) hFcRn pH 6.0) it was 1.2e-08 M; in assay [3] (pH 7.4, read-out: KD (M) hFcRn pH 7.4) it was over 5e-07 M. For the same substance, the “blocking of hIgG binding to hFcRn” value in assay [4] is listed as “effectively blocked hIgG binding to hFcRn (FIG. 6, Panel A) in a dose dependent manner”.
